Reference: the supplement of paper PMC4466236
Whole data set: some 33,000 sequences, median “E-score (dimensionless, -0.5 to 0.5)” near -0.058, cut for the highest 2% near 0.35. This is one part of the list.

The sequences below were run on MvaT (assay: PBM 8-mer E-score (mean of HK and ME arrays) (E-score (dimensionless, -0.5 to 0.5)); higher = stronger relative binding preference; most listed sequences are background and not binding sites).
In short: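 Full-length P. aeruginosa MvaT carrying an N-terminal glutathione S-transferase tag was tested by protein binding microarray following a previously described protocol. Two universal double-stranded 60-mer arrays, ME and HK, were used, each with a constant 25-mer primer region and a variable 35-mer region covering all 8-mers. The rank-based E-score is the mean of the two arrays, parsed with a custom script. Its range runs from -0.5 to 0.5 for each 8-mer.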
For ATCTTGAA, the “PBM 8-mer E-score” value was 0.111. For AGGGTACA, the “PBM 8-mer E-score” value was 0.0185. For ACAGGGTC, the “PBM 8-mer E-score” value was -0.285. With CGTGGGCC the “PBM 8-mer E-score” value was -0.328. For AGCAAAAT, the “PBM 8-mer E-score” value was 0.192. For CTGGACGA, the “PBM 8-mer E-score” value was -0.188. For AAAACGGC, the “PBM 8-mer E-score” value was -0.000299. With CGGAACAA the “PBM 8-mer E-score” value was 0.000205. With AATGTTAC the “PBM 8-mer E-score” value was 0.186. For CGGTCTTA, the “PBM 8-mer E-score” value was -0.115. With AGTCGGTC the “PBM 8-mer E-score” value was -0.0888. GGTGGCGA was tested, and the “PBM 8-mer E-score” value was -0.142. In the case of CACATACC, the “PBM 8-mer E-score” value is reported as 0.0256. For GAACTTAC, the “PBM 8-mer E-score” value was 0.228. GTCACGAA was tested, and the “PBM 8-mer E-score” value was -0.196. CGGACAAA was tested, and the “PBM 8-mer E-score” value was 0.029. With AGCTTCTC the “PBM 8-mer E-score” value was -0.282. For CCAGCGGG, the “PBM 8-mer E-score” value was -0.312. With ATATGTAG the “PBM 8-mer E-score” value was 0.264. In the case of AAAACACG, the “PBM 8-mer E-score” value is reported as 0.122. In the case of GCTGGCTA, the “PBM 8-mer E-score” value is reported as -0.274. In the case of GCAGTAAA, the “PBM 8-mer E-score” value is reported as 0.157. AGTTTTCC was tested, and the “PBM 8-mer E-score” value was 0.136. For AGCTTAAC, the “PBM 8-mer E-score” value was 0.0325. With ATGCAGAA the “PBM 8-mer E-score” value was 0.0633. CGAATACA was tested, and the “PBM 8-mer E-score” value was 0.199. For ATATCATG, the “PBM 8-mer E-score” value was 0.22. For CCTTCTAA, the “PBM 8-mer E-score” value was -0.0128. For ATGTGCAG, the “PBM 8-mer E-score” value was 0.00997. CCTAGGGC was tested, and the “PBM 8-mer E-score” value was -0.21. In the case of ATTATTAC, the “PBM 8-mer E-score” value is reported as 0.439. CATGAATG was tested, and the “PBM 8-mer E-score” value was -0.015. With AATAGGGG the “PBM 8-mer E-score” value was 0.0834. With CGCAGGAG the “PBM 8-mer E-score” value was -0.145. GCCCACAC was tested, and the “PBM 8-mer E-score” value was -0.149. AAGGTGTC was tested, and the “PBM 8-mer E-score” value was -0.145. ACGGTAGT was tested, and the “PBM 8-mer E-score” value was 0.029. CTATGCTC was tested, and the “PBM 8-mer E-score” value was -0.201. With ATTAGGGA the “PBM 8-mer E-score” value was 0.00465. With AAACGCTG the “PBM 8-mer E-score” value was 0.0263. In the case of AGAAAGAT, the “PBM 8-mer E-score” value is reported as 0.0974. In the case of CATACTTC, the “PBM 8-mer E-score” value is reported as 0.224. With CTTCCTTC the “PBM 8-mer E-score” value was -0.208. TGCGGCAA was tested, and the “PBM 8-mer E-score” value was 0.00408. In the case of GTAACCAC, the “PBM 8-mer E-score” value is reported as -0.0487. For TAAACGCA, the “PBM 8-mer E-score” value was 0.152. For AGATGAAT, the “PBM 8-mer E-score” value was 0.0926. AGGGTAAG was tested, and the “PBM 8-mer E-score” value was -0.101. In the case of GCTAGGTA, the “PBM 8-mer E-score” value is reported as 0.102. With TCCCACGA the “PBM 8-mer E-score” value was -0.0595. With CCGGACTA the “PBM 8-mer E-score” value was -0.117. In the case of CGGCATAC, the “PBM 8-mer E-score” value is reported as -0.0769. With AAAAACGT the “PBM 8-mer E-score” value was -0.00215. For AGGCTTAC, the “PBM 8-mer E-score” value was -0.247. For ATTACACG, the “PBM 8-mer E-score” value was 0.157. In the case of AACAAATA, the “PBM 8-mer E-score” value is reported as 0.369. With CACACGAC the “PBM 8-mer E-score” value was -0.0827. For AAGTTGTG, the “PBM 8-mer E-score” value was 0.179. GGAGCGAC was tested, and the “PBM 8-mer E-score” value was -0.217. In the case of CGTTGGGC, the “PBM 8-mer E-score” value is reported as -0.274. With GAACTCTA the “PBM 8-mer E-score” value was 0.0278. CCAAAAAA was tested, and the “PBM 8-mer E-score” value was 0.112. GCTCCCCC was tested, and the “PBM 8-mer E-score” value was -0.391. AGGCTGAT was tested, and the “PBM 8-mer E-score” value was -0.0817. ACGCATCG was tested, and the “PBM 8-mer E-score” value was -0.196. For CATACGTA, the “PBM 8-mer E-score” value was -0.0616. GTGATCTA was tested, and the “PBM 8-mer E-score” value was -0.117. ACCACATA was tested, and the “PBM 8-mer E-score” value was 0.21. In the case of ACTCTTGA, the “PBM 8-mer E-score” value is reported as -0.112. GGGCATAA was tested, and the “PBM 8-mer E-score” value was -0.0189. With TCAATTAA the “PBM 8-mer E-score” value was 0.237. For GAACGTAC, the “PBM 8-mer E-score” value was -0.0393. For ATAACTCA, the “PBM 8-mer E-score” value was 0.232. In the case of CTCTTTAA, the “PBM 8-mer E-score” value is reported as 0.00514. For ACATCTAC, the “PBM 8-mer E-score” value was 0.113. With GGGTTCGA the “PBM 8-mer E-score” value was -0.0836. TGAGGGCA was tested, and the “PBM 8-mer E-score” value was -0.307. With GGGTCAAC the “PBM 8-mer E-score” value was -0.238. GAAGGAAA was tested, and the “PBM 8-mer E-score” value was -0.229. For GCAGTTAA, the “PBM 8-mer E-score” value was 0.248. For TCCTACCA, the “PBM 8-mer E-score” value was -0.239. In the case of ATTCCTTG, the “PBM 8-mer E-score” value is reported as -0.0186. In the case of CAAATGCG, the “PBM 8-mer E-score” value is reported as -0.0484. For ATTGAACC, the “PBM 8-mer E-score” value was 0.0543. With AATATCCC the “PBM 8-mer E-score” value was 0.174. With ATTAGGGC the “PBM 8-mer E-score” value was -0.152. AACGCTGT was tested, and the “PBM 8-mer E-score” value was -0.107. For AGCCGCAC, the “PBM 8-mer E-score” value was -0.168. With AACGTCAG the “PBM 8-mer E-score” value was -0.0661. For CATCGTTC, the “PBM 8-mer E-score” value was -0.148. With AGTGCCGA the “PBM 8-mer E-score” value was -0.0895. For GAGATAGC, the “PBM 8-mer E-score” value was -0.108. For GAACTTCA, the “PBM 8-mer E-score” value was 0.176. GGTGTCAA was tested, and the “PBM 8-mer E-score” value was -0.0181. For CGCCTCAC, the “PBM 8-mer E-score” value was -0.231. With GCTAAAAC the “PBM 8-mer E-score” value was -0.0314. For CAGAGTTC, the “PBM 8-mer E-score” value was 0.0397. With CCCGCTAG the “PBM 8-mer E-score” value was -0.135. For CTCTGCGC, the “PBM 8-mer E-score” value was -0.134. With AGTATTGC the “PBM 8-mer E-score” value was 0.0989. For GGTACAAC, the “PBM 8-mer E-score” value was 0.073. For CTAGCCTA, the “PBM 8-mer E-score” value was -0.138. In the case of CCTGACGA, the “PBM 8-mer E-score” value is reported as -0.119. CGCCCTTC was tested, and the “PBM 8-mer E-score” value was -0.242. In the case of AGGACGGG, the “PBM 8-mer E-score” value is reported as -0.152. TAGCGTAA was tested, and the “PBM 8-mer E-score” value was 0.0857. CAACCAAC was tested, and the “PBM 8-mer E-score” value was 0.0281. TTCGGAAA was tested, and the “PBM 8-mer E-score” value was 0.00334. For ATTAGATA, the “PBM 8-mer E-score” value was 0.312. In the case of AGCCTCCA, the “PBM 8-mer E-score” value is reported as -0.276. GAATTTCA was tested, and the “PBM 8-mer E-score” value was 0.108. For CTCATTGC, the “PBM 8-mer E-score” value was -0.0825. With CCAGGCAC the “PBM 8-mer E-score” value was -0.347. With CCCTCTCG the “PBM 8-mer E-score” value was -0.179. In the case of AAACAATT, the “PBM 8-mer E-score” value is reported as 0.346. In the case of AAACGGTG, the “PBM 8-mer E-score” value is reported as -0.0487. For CTTAATGC, the “PBM 8-mer E-score” value was 0.177. For CGGTATAG, the “PBM 8-mer E-score” value was -0.0372. With CATCCTTC the “PBM 8-mer E-score” value was -0.123. With TACGCCCA the “PBM 8-mer E-score” value was -0.121. With GGACGGCC the “PBM 8-mer E-score” value was -0.262. AACAATAT was tested, and the “PBM 8-mer E-score” value was 0.362. CACCGGAG was tested, and the “PBM 8-mer E-score” value was -0.244. For AGGGGAGC, the “PBM 8-mer E-score” value was -0.376. For ACAAACCC, the “PBM 8-mer E-score” value was 0.0533. In the case of CTAATTAA, the “PBM 8-mer E-score” value is reported as 0.413. For ATTCGCGG, the “PBM 8-mer E-score” value was -0.0656. ACATCTCC was tested, and the “PBM 8-mer E-score” value was -0.0467. With ATGCTCAC the “PBM 8-mer E-score” value was -0.139. CCTTCGCC was tested, and the “PBM 8-mer E-score” value was -0.29. For CAATTTAG, the “PBM 8-mer E-score” value was 0.2. CGGGTCGC was tested, and the “PBM 8-mer E-score” value was -0.189. With TAGGTAAA the “PBM 8-mer E-score” value was 0.223. In the case of TGTAGAAA, the “PBM 8-mer E-score” value is reported as 0.143. In the case of TCTCATAA, the “PBM 8-mer E-score” value is reported as 0.0817. In the case of AAGTCTAA, the “PBM 8-mer E-score” value is reported as 0.22. In the case of TGCTACAA, the “PBM 8-mer E-score” value is reported as 0.138. AACCACTT was tested, and the “PBM 8-mer E-score” value was 0.0932. In the case of AGCTTCCC, the “PBM 8-mer E-score” value is reported as -0.155. With CCGGATTC the “PBM 8-mer E-score” value was -0.146. For CTCCTACA, the “PBM 8-mer E-score” value was -0.104. AACCTGGA was tested, and the “PBM 8-mer E-score” value was -0.275. With CCCCTCAG the “PBM 8-mer E-score” value was -0.271. For CATACAAC, the “PBM 8-mer E-score” value was 0.23. In the case of CACTCGGA, the “PBM 8-mer E-score” value is reported as -0.0486. In the case of ACCCCGCT, the “PBM 8-mer E-score” value is reported as -0.251. With TACCTGCA the “PBM 8-mer E-score” value was -0.00127. ACTCCTGA was tested, and the “PBM 8-mer E-score” value was -0.0172. In the case of AACCACGT, the “PBM 8-mer E-score” value is reported as -0.0974. With GATAGATC the “PBM 8-mer E-score” value was -0.0141. With CCAGTTGA the “PBM 8-mer E-score” value was 0.021. GAGAAAGC was tested, and the “PBM 8-mer E-score” value was -0.107. CCGCTACC was tested, and the “PBM 8-mer E-score” value was -0.197. AGACACTA was tested, and the “PBM 8-mer E-score” value was 0.134. With ACCCAAAT the “PBM 8-mer E-score” value was 0.0222. In the case of GATAGGGA, the “PBM 8-mer E-score” value is reported as -0.162. For AATCATAA, the “PBM 8-mer E-score” value was 0.306. For TAAGTGCA, the “PBM 8-mer E-score” value was 0.254. ATGTGGTC was tested, and the “PBM 8-mer E-score” value was 0.0334. With GGATGCTA the “PBM 8-mer E-score” value was -0.208. For ATGTCCCA, the “PBM 8-mer E-score” value was -0.00613. For ATTCCAAG, the “PBM 8-mer E-score” value was 0.101. In the case of AGTCGCCG, the “PBM 8-mer E-score” value is reported as -0.245. In the case of AAGTTGTC, the “PBM 8-mer E-score” value is reported as 0.168. CAGCTCGA was tested, and the “PBM 8-mer E-score” value was -0.191. With CTGTTCCC the “PBM 8-mer E-score” value was -0.133. CGGGGATC was tested, and the “PBM 8-mer E-score” value was -0.256. With GAAATCAC the “PBM 8-mer E-score” value was -0.0943. AAAATTCT was tested, and the “PBM 8-mer E-score” value was 0.0934. In the case of AGTACACG, the “PBM 8-mer E-score” value is reported as -0.15. With GGTAACAA the “PBM 8-mer E-score” value was 0.107. For CATACTAC, the “PBM 8-mer E-score” value was 0.2.
